# According to the supplement of paper PMC10037445:
# Whole data set: some 2,900 compounds, median “NF-kB SEAP reporter activity, fold change vs agonist alone” near 0.99, cut for the highest 2% near 2.6. The list shows a part of the results.
# Key:
# [1] = system: RAW-Dual; assay: NF-kB SEAP reporter activity, fold change vs agonist alone; cytotoxicity flag (confluency mask): not cytotoxic; higher = enhanced NF-kB activity
# Method in brief: (§1)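 Reporter activity is given as fold change relative to agonist-alone wells. To measure it, 50 nL of library stock was pin-tooled onto RAW-Dual macrophages (50,000 cells/well, DMEM, 384-well plates), a PRR agonist followed 1 h later, and cells stayed at 37 °C, 5% CO2. Twenty hours on, supernatant was assayed for IRF (QuantiLuc luminescence) and NF-κB (QuantiBlue, 620 nm absorbance), and wells under 70% of agonist-control IncuCyte confluency in both mask sets were marked cytotoxic.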
# [2] = system: RAW-Dual; assay: NF-kB SEAP reporter activity, fold change vs agonist alone; higher = enhanced NF-kB activity; conditions: library stock concentration (final ~1000-fold dilution): 10 mM
# Method in brief: as §1
# [3] = system: RAW-Dual; assay: NF-kB SEAP reporter activity, fold change vs agonist alone; cytotoxicity flag (confluency mask): cytotoxic (confluency <70% of control); higher = enhanced NF-kB activity
# Method in brief: as §1
# [4] = agonist: ODN 1826 (TLR9) 0.5 ug/mL
# [5] = agonist: Pam2CSK4 (TLR2/6) 0.1 ug/mL
# [6] = agonist: Pam3CSK4 (TLR2/1) 0.1 ug/mL
# [7] = cytotoxicity flag (confluency mask): not cytotoxic, agonist: Imiquimod (TLR7) […]
# [8] = cytotoxicity flag (confluency mask): not cytotoxic, agonist: MPLA (TLR4) […]
# [9] = cytotoxicity flag (confluency mask): cytotoxic (confluency <70% of control), agonist: Imiquimod (TLR7) […]
# [10] = cytotoxicity flag (confluency mask): cytotoxic (confluency <70% of control), agonist: MPLA (TLR4) […]
structure (smiles),measurement,setting,value
Cc1cccn2c(=O)c(-c3nnn[nH]3)cnc12 (library stock concentration (final ~1000-fold dilution): 10 mM water),NF-kB SEAP reporter activity,[1]; agonist: LPS (TLR4) 0.1 ug/mL,1.13
same,NF-kB SEAP reporter activity,[1]; [4],1.16
same,NF-kB SEAP reporter activity,[1]; [5],1.21
same,NF-kB SEAP reporter activity,[1]; [6],1.13
CCC(=O)OC1CC(=O)OC(C)C/C=C/C=C/C(O)C(C)CC(CC=O)C(OC2OC(C)C(OC3CC(C)(O)C(OC(=O)CC)C(C)O3)C(N(C)C)C2O)C1OC (stereo not given) (library stock concentration (final ~1000-fold dilution): 10 mM),NF-kB SEAP reporter activity,[1]; agonist: LPS (TLR4) 0.1 ug/mL,0.93
same,NF-kB SEAP reporter activity,[1]; [4],1.02
same,NF-kB SEAP reporter activity,[1]; [5],1.06
same,NF-kB SEAP reporter activity,[1]; [6],1.21
CCC(=O)OC1CC(=O)OC(C)C/C=C/C=C/C(O)C(C)CC(CC=O)C(OC2OC(C)C(OC3CC(C)(O)C(OC(=O)CC)C(C)O3)C(N(C)C)C2O)C1OC (stereo not given),NF-kB SEAP reporter activity,[2]; [7],0.961
same,NF-kB SEAP reporter activity,[2]; [8],1.07
CCOCCn1c(N2CCCN(C)CC2)nc2ccccc21,NF-kB SEAP reporter activity,[2]; [7],0.877
same,NF-kB SEAP reporter activity,[2]; [8],1.05
CCOCCn1c(N2CCCN(C)CC2)nc2ccccc21 (library stock concentration (final ~1000-fold dilution): 10 mM),NF-kB SEAP reporter activity,[1]; agonist: LPS (TLR4) 0.1 ug/mL,0.9
same,NF-kB SEAP reporter activity,[1]; [4],0.825
same,NF-kB SEAP reporter activity,[1]; [5],1.06
same,NF-kB SEAP reporter activity,[1]; [6],0.705
CC(C)(C)OC(=O)Nc1ccc(-c2cc(C(=O)NCCCCCCC(=O)NO)no2)cc1 (library stock concentration (final ~1000-fold dilution): 10 mM),NF-kB SEAP reporter activity,[3]; agonist: LPS (TLR4) 0.1 ug/mL,6.9
same,NF-kB SEAP reporter activity,[3]; [4],1.11
same,NF-kB SEAP reporter activity,[3]; [5],1.33
same,NF-kB SEAP reporter activity,[3]; [6],1.21
CC(C)(C)OC(=O)Nc1ccc(-c2cc(C(=O)NCCCCCCC(=O)NO)no2)cc1,NF-kB SEAP reporter activity,[2]; [9],0.912
same,NF-kB SEAP reporter activity,[2]; [10],1.81
Cc1nc(C)c(C)nc1C,NF-kB SEAP reporter activity,[2]; [7],0.938
same,NF-kB SEAP reporter activity,[2]; [8],0.943
Cc1nc(C)c(C)nc1C (library stock concentration (final ~1000-fold dilution): 10 mM),NF-kB SEAP reporter activity,[1]; agonist: LPS (TLR4) 0.1 ug/mL,0.93
same,NF-kB SEAP reporter activity,[1]; [4],0.963
same,NF-kB SEAP reporter activity,[1]; [5],0.996
same,NF-kB SEAP reporter activity,[1]; [6],1.02
CCS(=O)(=O)N1CCN(c2ccc(Nc3ncc(C(N)=O)c(NC4CC4)n3)cc2)CC1.Cl (library stock concentration (final ~1000-fold dilution): 10 mM),NF-kB SEAP reporter activity,[3]; agonist: LPS (TLR4) 0.1 ug/mL,0.273
same,NF-kB SEAP reporter activity,[3]; [4],0.218
same,NF-kB SEAP reporter activity,[3]; [5],0.0746
same,NF-kB SEAP reporter activity,[3]; [6],0.121
CCS(=O)(=O)N1CCN(c2ccc(Nc3ncc(C(N)=O)c(NC4CC4)n3)cc2)CC1.Cl,NF-kB SEAP reporter activity,[2]; [9],0.23
same,NF-kB SEAP reporter activity,[2]; [10],0.398
Cc1cc([N+](=O)[O-])c(NS(=O)(=O)c2cccc(C(=O)O)c2)cc1-c1cccnc1,NF-kB SEAP reporter activity,[2]; [7],0.932
same,NF-kB SEAP reporter activity,[2]; [8],0.946
Cc1cc([N+](=O)[O-])c(NS(=O)(=O)c2cccc(C(=O)O)c2)cc1-c1cccnc1 (library stock concentration (final ~1000-fold dilution): 10 mM),NF-kB SEAP reporter activity,[1]; agonist: LPS (TLR4) 0.1 ug/mL,1.12
same,NF-kB SEAP reporter activity,[1]; [4],0.852
same,NF-kB SEAP reporter activity,[1]; [5],1.02
same,NF-kB SEAP reporter activity,[1]; [6],0.926
